PMC4336329 (PLoS ONE, 2015)
Screen size: about 310,000 compounds; about 2,200 (0.71%) showed an effect of 50% or more. Effects have a minus sign here. Some of the results follow.

target: human ether-à-go-go-related gene (hERG) potassium channel (human, UniProt Q12809); test: primary screen, population patch clamp on CHO cells stably expressing hERG
Sequence (Q12809 whole entry, looked up): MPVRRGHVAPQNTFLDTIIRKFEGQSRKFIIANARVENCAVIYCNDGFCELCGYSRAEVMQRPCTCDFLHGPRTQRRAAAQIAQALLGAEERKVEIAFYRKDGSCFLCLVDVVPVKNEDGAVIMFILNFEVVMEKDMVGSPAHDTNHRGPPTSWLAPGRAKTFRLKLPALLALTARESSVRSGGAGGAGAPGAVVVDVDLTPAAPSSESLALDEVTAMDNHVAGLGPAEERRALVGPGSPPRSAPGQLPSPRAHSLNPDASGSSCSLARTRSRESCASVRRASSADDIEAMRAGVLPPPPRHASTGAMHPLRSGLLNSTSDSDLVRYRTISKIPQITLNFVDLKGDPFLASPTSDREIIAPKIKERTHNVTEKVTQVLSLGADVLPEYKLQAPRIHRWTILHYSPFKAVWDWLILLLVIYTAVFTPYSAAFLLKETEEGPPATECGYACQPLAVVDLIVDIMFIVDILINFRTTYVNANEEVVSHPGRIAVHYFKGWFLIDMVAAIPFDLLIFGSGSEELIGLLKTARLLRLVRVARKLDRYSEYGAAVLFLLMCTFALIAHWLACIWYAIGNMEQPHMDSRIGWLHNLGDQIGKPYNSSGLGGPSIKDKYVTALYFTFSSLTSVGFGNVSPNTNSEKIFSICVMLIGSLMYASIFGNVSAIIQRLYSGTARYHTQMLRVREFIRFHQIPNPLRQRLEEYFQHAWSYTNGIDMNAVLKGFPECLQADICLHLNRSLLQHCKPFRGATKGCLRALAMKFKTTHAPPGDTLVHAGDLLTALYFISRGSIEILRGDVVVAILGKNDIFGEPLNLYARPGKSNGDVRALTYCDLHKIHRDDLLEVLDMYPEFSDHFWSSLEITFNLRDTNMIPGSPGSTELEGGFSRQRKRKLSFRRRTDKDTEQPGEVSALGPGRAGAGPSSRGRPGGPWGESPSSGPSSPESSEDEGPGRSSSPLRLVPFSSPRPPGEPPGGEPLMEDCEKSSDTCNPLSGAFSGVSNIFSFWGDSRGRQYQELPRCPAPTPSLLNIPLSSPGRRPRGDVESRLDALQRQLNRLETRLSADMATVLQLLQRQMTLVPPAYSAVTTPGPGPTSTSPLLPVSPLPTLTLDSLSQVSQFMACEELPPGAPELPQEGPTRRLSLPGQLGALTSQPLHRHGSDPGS

SMILES	hERG current change (%, negative = inhibition) at 1uM
CC(C)OCCCNC(=O)CN1C(=O)/C(=C/c2ccccc2)Sc2ccccc21	11.8%
CCN(CC)CCCNC(=O)CNC(=O)c1nn(-c2ccc(OC)c(OC)c2)c(=O)c2ccccc12	19.2%
Cc1cc(=O)n2nc(N3CCC(C(=O)NCc4cccnc4)CC3)sc2n1	6.87%
O=C(OCCCC(=O)N1CCOCC1)c1ccccc1	10.3%
O=C(C1=C(O)C(=O)N(Cc2ccccc2)C1c1ccncc1)c1ccco1 (stereo not drawn)	12.9%
COc1ccc(CNC(=O)c2c(-c3cc(Cl)c(OC)c(Cl)c3)noc2C)cc1	1.89%
CCOC(=O)C(N)CSC1CC(=O)N(c2ccc(OC)cc2)C1=O.Cl (stereo not drawn)	21.6%
NCCCCCNC(=O)/C=N\O	16.3%
CCOC(=O)C(=O)N1CCN(c2ccccc2OC)CC1	8.52%
COCCNC(=O)c1onc(CS(=O)(=O)c2cc(C)cc(C)c2)c1C(=O)NCCOC	11.5%
CNc1ccc(OC)cc1-n1cnc(-c2ccc([N+](=O)[O-])cc2)c1	12.7%
COCc1nc2oc3ccc(C)cc3c(=O)c2cc1C(=O)OC	17%
COc1ccc(-n2c(CN3CCN(C)CC3)nc3ccc([N+](=O)[O-])cc3c2=O)c(OC)c1	-17.5%
COc1ccc([C@@H]2[C@@H]3C(=O)N(C(C)(C)C)C(=O)[C@@H]3[C@]3(Cc4ccc(Cl)cc4)C(=O)N(c4ccc(C)cc4)C(=O)N23)cc1	8.52%
COc1cc(NC(=O)/C=C/c2ccccc2)c(C(=O)O)cc1OC	8.31%
CCCCCC1CC(CC(=O)Nc2ccc([N+](=O)[O-])cc2)OC1=O (stereo not drawn)	-7.5%
CC(C)c1ccc(/C=C2\SC(=S)N(CCC(=O)NCCCn3ccnc3)C2=O)cc1	6.99%
Cc1ccc(NC2CCCN(C(=O)c3ccc4[nH]ccc4c3)C2)cc1C (stereo not drawn)	9.7%
COCC(C)NC(=O)c1ccc(CN2CCc3ccccc3C2)cc1 (stereo not drawn)	3.65%
CCC(=O)N(Cc1cc2ccc(C)cc2n2nnnc12)C1CCCCC1	7.53%
Cc1cccc2cc(/C=C3\N=C(c4ccccc4)OC3=O)c(N3CCOCC3)nc12	4%
COc1ccc(/C=C2\C(=O)N(c3c(Cl)cc(Cl)cc3Cl)N=C2NC(=O)c2cccc([N+](=O)[O-])c2)cc1	15.7%
CCC(C)c1ccccc1NC(=O)c1cc2cccc([N+](=O)[O-])c2[nH]1 (stereo not drawn)	5.97%

SMILES	hERG current change (%, negative = inhibition) at 1uM
CSc1cccc(NC(=O)COc2ccccc2C)c1	16.5%
Cc1cc(OCC(=O)C(C)(C)C)c2c(C)c(C)c(=O)oc2c1	21.1%
O=C(NCCN1CCOCC1)c1noc2c1CCc1ccccc1-2	-12.1%
CCOc1c(Cl)cc(C(=O)Nc2cccc(C(=O)O)c2)cc1Cl	10.9%
COc1ccccc1-c1noc(-c2ccccc2C(=O)Nc2ccccc2)n1	15.6%
Cc1cnnn1-c1ccc([N+](=O)[O-])cc1	17.6%
CC(C)(C)NC(=O)c1ccc2c(c1)C(=O)N(C1CCCCC1)C2=O	0.484%
CCN1CC(CN(C)Cc2nc(-c3ccc(C(F)(F)F)cc3)oc2C)CC1=O (stereo not drawn)	-10.2%
Cc1ccc2[nH]c3c(c2c1)CN(C(=O)CN1CC(C)OC(C)C1)CC3 (stereo not drawn)	5.28%
Cc1nc2sc(C(c3ccco3)N3CCN(c4ccccc4F)CC3)c(O)n2n1 (stereo not drawn)	-3.16%
COc1cccc(NC(=O)CN(C)CC(=O)NCc2ccc3c(c2)OCO3)c1	2.61%
O=C(CCS(=O)(=O)c1ccccc1Cl)NCc1ccc(F)cc1	-6.52%
CSc1nnc(SCC#N)s1	14.2%
CC(C)=CCN1CCN(Cc2ccoc2)CC1CCO (stereo not drawn)	10.5%
CCOC(=O)c1c(-c2ccccc2)csc1NC(=O)c1nn(CC)cc1Br	5.3%
COCCNC(=O)CN1C(=O)COc2ccc(S(=O)(=O)N3CCCCCC3)cc21	16%
CC(C)(C)c1cc(C(=O)Nc2cccc3ccccc23)ccn1	9.94%
COCCCNC(=O)CC(C)c1ccccc1 (stereo not drawn)	8.27%
CCC(C(=O)NC1CCCC1)n1c(SCc2cccc(C)c2)nc2ccncc21 (stereo not drawn)	6.63%
Cc1ccc(OCC(=O)Nc2ccc3c4c(cccc24)CC3)c(C)c1	3.9%
Nc1nc(NCc2ccco2)nc(N2CCCCCC2)c1[N+](=O)[O-]	-4.52%
COc1ccc(CN2CCNC(=O)C2CC(=O)N2CCCCO2)cc1OC (stereo not drawn)	7.37%
COc1ccc(OC)c(NC(=S)N2CCc3ccccc3C2)c1	-1.57%

SMILES	hERG current change (%, negative = inhibition) at 1uM
O=C(NN1C(=O)/C(=C/c2ccc(O)c(O)c2)SC1=S)c1ccccc1	7.63%
Cc1c(C(=O)N2CCC(N3CCSCC3)CC2)oc2c(F)cccc12	2.81%
CCO/N=C(\C)c1c(O)cc(C(C)C)n(-c2ccccc2)c1=O	7.64%
COc1ccc(CCNC(=O)CSc2nc(C)cs2)cc1	9.37%
CN(CC(=O)NC1CC1)S(=O)(=O)c1ccc(F)cc1	12.1%
CCN(Cc1ccccc1)C(=O)c1cccc(OC2CCN(C(=O)C3CC3)CC2)c1	0.806%
CC1(C)Cc2ccccc2C2CC(O)C(=O)N21 (stereo not drawn)	14.9%
CN(C)S(=O)(=O)c1ccc(C(=O)Nc2nnc(SCc3cccc(F)c3)s2)cc1	3.51%
Cc1cccc(N2CCN(S(=O)(=O)c3ccc4c(c3)CCCN4C(=O)C3CCC3)CC2)c1C	-7.83%
COc1ccccc1CCNC(=O)c1nc(-c2cccs2)no1	7.02%
O=C(Nc1cccc(NC(=O)c2ccccc2Cl)c1)c1ccco1	14.6%
Cn1nc(-c2ccccc2)c(CO)c1Oc1cccc(C(F)(F)F)c1	5.55%
COC(=O)c1ccccc1NC(=O)N[C@@H](C)C(=O)OC	6.02%
COC(=O)c1ccc(CNC(=O)/C=C/c2cc([N+](=O)[O-])ccc2OC(F)F)cc1	2.87%
CN(C)CC1CSCCC1(O)c1ccc(C(F)(F)F)cc1.Cl (stereo not drawn)	10.3%
CC(C)(C)n1nnnc1C(c1cc2cc3c(cc2[nH]c1=O)OCCO3)N1CCSCC1 (stereo not drawn)	10.9%
CCN(CC)C(=O)c1sc2nc(N3CCOCC3)c3c(c2c1N)CCCC3	9.65%
Cc1ccc(S(=O)(=O)N2[C@@H](c3ccccc3)C(C(=O)O)=CC[C@H]2c2cccc(C)c2)cc1	16.8%
COc1ccc(Nc2cc(Cl)ccc2C(=O)O)cn1	0.0478%
Cc1cnc(Nc2nc3ccccc3o2)nc1C(=O)Nc1cccc(C(F)(F)F)c1	-9.5%
N#CCCCCN1CCCC1	16%
CC(=O)Nc1ccc(Sc2ccccc2C(=O)O)c(C(=O)O)c1	16.9%
O=c1cc(CN2CCOCC2)c2cc(Cl)c(O)cc2o1	10.3%

SMILES	hERG current change (%, negative = inhibition) at 1uM
Cc1ccc(-c2nc3c4ccccc4ccn3c2CN2CCCCC2)cc1.Cl	3.62%
COc1cccc(-c2c(C(=O)N/N=C(\C)c3ccncc3)nnn2-c2nonc2N)c1	-1.09%
Cc1ccc(NC2CCCN(C(=O)c3ccccc3-c3ncc[nH]3)C2)cc1C (stereo not drawn)	9.64%
CC(=O)CC(=O)Nc1ccn(-c2ccccc2)n1	4.69%
Cc1cccc(NC(=O)CCN2CCC(C)CC2)c1	11.5%
CC(=O)Nc1cc(-c2ccccc2)nn1Cc1ccc(Cl)cc1	15%
Cc1onc(-c2ccccc2Cl)c1C(=O)OCC(=O)c1c(N)n(C)c(=O)n(C)c1=O	6.3%
COc1cccc(Cn2c(=O)sc3ccccc3c2=O)c1	12%
CC(C)Cn1cnc2c1c(=O)[nH]c(=O)n2Cc1ccccc1	13%
COc1ccc(NC(=S)Nn2cnnc2)c(OC)c1	12.3%
O=C(CSc1nc(-c2ccccc2)cc(=O)[nH]1)Nc1ccc(F)c(F)c1	12.9%
Cc1cc(-c2ccc(Br)cc2)n[nH]1	0.796%
CC(C)CN(CC(C)C)C(=O)CS(=O)(=O)Cc1ccccc1	10%
COc1ccc(Cl)cc1-c1nc(SCC(=O)N(C)CCC#N)n[nH]1	9.76%
COC(=O)C1=C(C)NC(C)=C(C(=O)OC)C1c1ccc(-c2cccc([N+](=O)[O-])c2)o1	17%
CCn1c(CCc2ccccc2)nnc1SCC(N)=O	13.3%
O=C1OC(N2CCN(C(=O)c3ccco3)CC2)c2ccccc21 (stereo not drawn)	9.25%
CCCSc1nc(C)cc(C)c1S(C)(=O)=O	15.1%
COCCn1c(C)cc(/C=C2/NC(=O)N(Cc3ccc(C)cc3)C2=O)c1C	15.1%
CC(=O)c1c(C)[nH]c(C(=O)C(C)Sc2nnc(NC3CC3)s2)c1C (stereo not drawn)	-0.0946%
C=CC(C)(C)c1[nH]cnc1/C=C1\NC(=O)C(C(C)C)NC1=O (stereo not drawn)	7.83%
